Structures can show the parent of a compound that is named as a salt. Over roughly 1,900 compounds, “cell viability of compound + 1 nM pemigatinib relative to pemigatinib-only (DMSO) wells” has its median near 0.95; the lowest 2% begin near 0.22. This is one part of the list.

The test system of the test is PDC-DUC18828. The test is described as follows: cell viability of compound + 1 nM pemigatinib relative to pemigatinib-only (DMSO) wells (fraction); PDC-DUC18828 is a patient-derived cholangiocarcinoma cell line; higher = less growth inhibition. Conditions: first compound 1 µM; pemigatinib concentration 1 nM; 72 h. The procedure:
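Selleck Bioactive library screen in the patient-derived FGFR2 fusion-positive ICC cell line PDC-DUC18828 (500 cells/well). Each compound was tested at 1 uM with 1 nM pemigatinib, in triplicate, for 72 h. Viability was read by CellTiter-Glo and normalised to plate DMSO controls. Value is the paper's averaged normalised viability.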
With `O=C(COc1ccc(C(=O)c2ccccc2)cc1)NC1CCN(Cc2ccccc2)CC1` [AdipoRon] + CCN1C(=O)N(c2c(F)c(OC)cc(OC)c2F)Cc2cnc3[nH]c(CN4CCOCC4)cc3c21 [pemigatinib], the cell viability was found to be 0.987.

As to `CC1(C)CCC(c2ccc(Cl)cc2)=C(CN2CCN(c3ccc(C(=O)NS(=O)(=O)c4ccc(N[C@H](CCN5CCOCC5)CSc5ccccc5)c(S(=O)(=O)C(F)(F)F)c4)cc3)CC2)C1` [ABT-263 (Navitoclax)] + CCN1C(=O)N(c2c(F)c(OC)cc(OC)c2F)Cc2cnc3[nH]c(CN4CCOCC4)cc3c21 [pemigatinib], the cell viability is 0.847.

Turning to `CS(=O)(=O)c1ccc(C(=O)Nc2ccc(Cl)c(-c3ccccn3)c2)c(Cl)c1` [Vismodegib (GDC-0449)] + CCN1C(=O)N(c2c(F)c(OC)cc(OC)c2F)Cc2cnc3[nH]c(CN4CCOCC4)cc3c21 [pemigatinib], the cell viability was found to be 1.05.

As to `COc1ccc(CC(C)NCC(O)c2ccc(O)c(NC=O)c2)cc1` (configuration not stated) [Formoterol Hemifumarate] + CCN1C(=O)N(c2c(F)c(OC)cc(OC)c2F)Cc2cnc3[nH]c(CN4CCOCC4)cc3c21 [pemigatinib], the cell viability stood at 0.971.

As to `CC(C)C[C@H](NC(=O)[C@H](Cc1ccccc1)NC(=O)c1cnccn1)B(O)O` [Bortezomib (PS-341)] + CCN1C(=O)N(c2c(F)c(OC)cc(OC)c2F)Cc2cnc3[nH]c(CN4CCOCC4)cc3c21 [pemigatinib], the cell viability came out at 0.0199.

Turning to `Cc1ccc2c(c1)C(=O)C1(O)CCN(c3ccccc3)C1=N2` (single isomer, unassigned; (-)) [(-)-Blebbistatin] + CCN1C(=O)N(c2c(F)c(OC)cc(OC)c2F)Cc2cnc3[nH]c(CN4CCOCC4)cc3c21 [pemigatinib], the cell viability turned out to be 0.998.

Turning to `Oc1c(Br)cc(Br)c2cccnc12` [Broxyquinoline] + CCN1C(=O)N(c2c(F)c(OC)cc(OC)c2F)Cc2cnc3[nH]c(CN4CCOCC4)cc3c21 [pemigatinib], the cell viability was found to be 1.06.

Consider `Nc1ccc2ncnc(NCCc3ccc(Oc4ccccc4)cc3)c2c1` + CCN1C(=O)N(c2c(F)c(OC)cc(OC)c2F)Cc2cnc3[nH]c(CN4CCOCC4)cc3c21 [pemigatinib], for which the cell viability turned out to be 0.842.

`CNc1nc(-c2ccc3c(N)n[nH]c3c2)cc(N2C[C@@H](C(=O)NC3CCCCC3)CC[C@H]2C)n1` + CCN1C(=O)N(c2c(F)c(OC)cc(OC)c2F)Cc2cnc3[nH]c(CN4CCOCC4)cc3c21 [pemigatinib]: the cell viability was 0.696.

`CN1CCN(S(=O)(=O)c2ccc(-c3cnc(N)c(C(=O)Nc4cccnc4)n3)cc2)CC1` + CCN1C(=O)N(c2c(F)c(OC)cc(OC)c2F)Cc2cnc3[nH]c(CN4CCOCC4)cc3c21 [pemigatinib]: the cell viability is 1.03.

`COc1ccc(-c2coc3cc(O)ccc3c2=O)cc1` [Formononetin] + CCN1C(=O)N(c2c(F)c(OC)cc(OC)c2F)Cc2cnc3[nH]c(CN4CCOCC4)cc3c21 [pemigatinib]: the cell viability amounted to 0.995.

Turning to `c1ccc2c(c1)CCCC2C1=NCCN1` (configuration not stated) [Tetrahydrozoline HCl] + CCN1C(=O)N(c2c(F)c(OC)cc(OC)c2F)Cc2cnc3[nH]c(CN4CCOCC4)cc3c21 [pemigatinib], the cell viability was 0.909.

On to `CC[C@]12C=CCN3CC[C@@]4(c5cc([C@@]6(C(=O)OC)C[C@@H]7C[C@@H](C(C)(F)F)CN(Cc8c6[nH]c6ccccc86)C7)c(OC)cc5N(C)[C@H]4[C@@](O)(C(=O)OC)[C@@H]1OC(C)=O)[C@@H]32` [Vinflunine Tartrate] + CCN1C(=O)N(c2c(F)c(OC)cc(OC)c2F)Cc2cnc3[nH]c(CN4CCOCC4)cc3c21 [pemigatinib], for which the cell viability was 0.264.

As for `CC(C)OC(=O)C(C(=O)OC(C)C)=C1SC=CS1` [Malotilate] + CCN1C(=O)N(c2c(F)c(OC)cc(OC)c2F)Cc2cnc3[nH]c(CN4CCOCC4)cc3c21 [pemigatinib], the cell viability was 0.974.

With `C1N2CN3CN1CN(C2)C3` [Methenamine] + CCN1C(=O)N(c2c(F)c(OC)cc(OC)c2F)Cc2cnc3[nH]c(CN4CCOCC4)cc3c21 [pemigatinib], the cell viability is 0.907.

As for `O=C(O)C1=C[C@@H](O)[C@@H](O)[C@H](O)C1` [Shikimic Acid] + CCN1C(=O)N(c2c(F)c(OC)cc(OC)c2F)Cc2cnc3[nH]c(CN4CCOCC4)cc3c21 [pemigatinib], the cell viability was 0.978.

In the case of `C=C(C)[C@@H]1CC[C@]2(C(=O)O)CC[C@]3(C)[C@H](CC[C@@H]4[C@@]5(C)CC[C@H](O)C(C)(C)[C@@H]5CC[C@]43C)[C@@H]12` [Betulinic acid] + CCN1C(=O)N(c2c(F)c(OC)cc(OC)c2F)Cc2cnc3[nH]c(CN4CCOCC4)cc3c21 [pemigatinib], the cell viability amounted to 0.933.

`CC(C)c1nc(N(C)S(C)(=O)=O)nc(-c2ccc(F)cc2)c1/C=C/[C@@H](O)C[C@@H](O)CC(=O)O` [Rosuvastatin Calcium] + CCN1C(=O)N(c2c(F)c(OC)cc(OC)c2F)Cc2cnc3[nH]c(CN4CCOCC4)cc3c21 [pemigatinib]: the cell viability came to 0.986.

`CCCCCOc1ccc(-c2ccc(-c3ccc(C(=O)N[C@H]4C[C@@H](O)[C@@H](O)NC(=O)[C@@H]5[C@@H](O)[C@@H](C)CN5C(=O)[C@H]([C@@H](C)O)NC(=O)[C@H]([C@H](O)[C@@H](O)c5ccc(O)cc5)NC(=O)[C@@H]5C[C@@H](O)CN5C(=O)[C@H]([C@@H](C)O)NC4=O)cc3)cc2)cc1` + CCN1C(=O)N(c2c(F)c(OC)cc(OC)c2F)Cc2cnc3[nH]c(CN4CCOCC4)cc3c21 [pemigatinib]: the cell viability worked out at 0.938.

With `CS(=O)(=O)c1ccc([C@@H](O)[C@@H](CF)NC(=O)C(Cl)Cl)cc1` [Florfenicol] + CCN1C(=O)N(c2c(F)c(OC)cc(OC)c2F)Cc2cnc3[nH]c(CN4CCOCC4)cc3c21 [pemigatinib], the cell viability turned out to be 0.975.

In the case of `O=C(COc1cccc2c(=O)[nH]ccc12)c1ccccc1` + CCN1C(=O)N(c2c(F)c(OC)cc(OC)c2F)Cc2cnc3[nH]c(CN4CCOCC4)cc3c21 [pemigatinib], the cell viability came to 1.02.

As for `CCNC(=O)[C@H]1O[C@@H](n2cnc3c(N)nc(NCCc4ccc(CCC(=O)O)cc4)nc32)[C@H](O)[C@@H]1O` + CCN1C(=O)N(c2c(F)c(OC)cc(OC)c2F)Cc2cnc3[nH]c(CN4CCOCC4)cc3c21 [pemigatinib], the cell viability turned out to be 0.99.

(Values after the supplement of paper PMC9588766.)
